US9763922B2 (priority 2014, dated 2017)

Each molecule was assayed on MYC (assay: cells). Settings: Homo sapiens, MV4-11, 4 h, read-out: Myc IC50 (μM).

Point of comparison: `CC(=O)N1CCc2c(c(N3CCc4cc(-c5cnn(C)c5)c(F)cc43)nn2C2CCOC2)C1` (centres unmarked) [Example 190, 1-[3-[6-fluoro-5-(1-methylpyrazol-4-yl)indolin-1-yl]-1-tetrahydrofuran-3-yl-6,7-dihydro-4H-pyrazolo[4,3-c]pyridin-5-yl]ethanone], IC50 0.562 µM. Against it:
- CC(=O)N1CCc2c(c(N3CCc4ccc(-c5cnn(C)c5)cc43)nn2CC2CC2)C1 [Example 170, 1-[1-(cyclopropylmethyl)-3-[6-(1-methylpyrazol-4-yl)indolin-1-yl]-6,7-dihydro-4H-pyrazolo[4,3-c]pyridin-5-yl]ethanone] — within 1.5-fold, 0.499 µM
- CNC(=O)N1CCc2c(c(N3C[C@H](C)Cc4cc(-c5cnn(C)c5)c(C(F)F)cc43)nn2C2CCOCC2)C1 [Example 250, (R)-3-[7-(difluoromethyl)-3-methyl-6-(1-methylpyrazol-4-yl)-3,4-dihydro-2H-quinolin-1-yl]-N-methyl-1-tetrahydropyran-4-yl-6,7-dihydro-4H-pyrazolo[4,3-c]pyridine-5-carboxamide] — 94-fold lower, 0.006 µM
- CC(=O)Nc1ccc(-c2cc3c(cc2C(F)F)N(c2nn(C4CCOCC4)c4c2CN(C(C)=O)CC4)CCC3)cn1 [Example 310, 1-[3-[2-fluoro-4-[3-(trifluoromethyl)-1H-pyrazol-4-yl]anilino]-1-tetrahydrofuran-3-yl-6,7-dihydro-4H-pyrazolo[4,3-c]pyridin-5-yl]ethanone] — 140-fold lower, 0.004 µM
- CC(=O)N1CCc2c(c(Nc3ccc(C4=CCCCC4)cc3)nn2CC2CC2)C1 [Example 99, 1-[3-[3-ethyl-6-(1-methylpyrazol-4-yl)-3,4-dihydro-2H-quinolin-1-yl]-1-tetrahydrofuran-3-yl-6,7-dihydro-4H-pyrazolo[4,3-c]pyridin-5-yl]ethanone] — 2.5-fold higher, 1.42 µM
- CC(=O)N1CCc2c(c(N3CC[C@@H](C)c4cc(-c5cnn(C)c5)c(C(F)F)cc43)nn2C2CCOCC2)C1 [Example 239, (R)-1-[3-[7-(difluoromethyl)-4-methyl-6-(1-methylpyrazol-4-yl)-3,4-dihydro-2H-quinolin-1-yl]-1-tetrahydropyran-4-yl-6,7-dihydro-4H-pyrazolo[4,3-c]pyridin-5-yl]ethanone] — 3.2-fold lower, 0.176 µM
- CNC(=O)N1CCc2c(c(N3CCCc4cc(-c5ccc(Cl)s5)c(C(F)F)cc43)nn2C2CCOCC2)C1 [Example 365, 3-[6-(5-chloro-2-thienyl)-7-(difluoromethyl)-3,4-dihydro-2H-quinolin-1-yl]-N-methyl-1-tetrahydropyran-4-yl-6,7-dihydro-4H-pyrazolo[4,3-c]pyridine-5-carboxamide] — 2.4-fold lower, 0.235 µM
- CNC(=O)N1CCc2c(c(N3CCCc4cc(-c5cnn(C)c5)c(C#N)cc43)nn2[C@H]2CCOC2)C1 [Example 158, 3-[7-cyano-6-(1-methylpyrazol-4-yl)-3,4-dihydro-2H-quinolin-1-yl]-N-methyl-1-[(3S)-tetrahydrofuran-3-yl]-6,7-dihydro-4H-pyrazolo[4,3-c]pyridine-5-carboxamide] — 12-fold lower, 0.046 µM
- CCC1Cc2cc(-c3cnn(C)c3)ccc2N(c2nn([C@H]3CCOC3)c3c2CN(C(C)=O)CC3)C1 (stereo in doubt) [Example 99, 1-[3-[3-ethyl-6-(1-methylpyrazol-4-yl)-3,4-dihydro-2H-quinolin-1-yl]-1-tetrahydrofuran-3-yl-6,7-dihydro-4H-pyrazolo[4,3-c]pyridin-5-yl]ethanone] — 10-fold higher, 5.65 µM
- CCOc1ccc(-c2ccc3c(c2)CCCN3c2nn([C@H]3CCOC3)c3c2CN(C(C)=O)CC3)cn1 [Example 51, 1-[3-[6-(6-ethoxy-3-pyridyl)-3,4-dihydro-2H-quinolin-1-yl]-1-[(3S)-tetrahydrofuran-3-yl]-6,7-dihydro-4H-pyrazolo[4,3-c]pyridin-5-yl]ethanone] — within 1.5-fold, 0.729 µM
- CC(=O)N1CCc2c(c(N3C[C@H](CC#N)c4cc(-c5cnn(C)c5)ccc43)nn2C2COC2)C1 [Example 215, (R)-2-[1-[5-acetyl-1-(oxetan-3-yl)-6,7-dihydro-4H-pyrazolo[4,3-c]pyridin-3-yl]-5-(1-methylpyrazol-4-yl)indolin-3-yl]acetonitrile] — 14-fold higher, 7.65 µM
- CC(=O)N1CCc2c(c(N3CCc4cc(-c5cnn(C)c5)c(C#N)cc43)nn2C2CCOCC2)C1 [Example 219, 1-(5-acetyl-1-tetrahydropyran-4-yl-6,7-dihydro-4H-pyrazolo[4,3-c]pyridin-3-yl)-5-(1-methylpyrazol-4-yl)indoline-6-carbonitrile] — 2.9-fold lower, 0.192 µM
- CC(=O)N1CCc2c(c(N3CCc4c3ccc(-c3cnn(C)c3)c4F)nn2C)C1 [Example 216, 1-[3-[4-fluoro-5-(1-methylpyrazol-4-yl)indolin-1-yl]-1-methyl-6,7-dihydro-4H-pyrazolo[4,3-c]pyridin-5-yl]ethanone] — 2.3-fold higher, 1.28 µM
- C=Cc1cc2c(cc1-c1cnn(C)c1)CCCN2c1nn(C2CCOCC2)c2c1CN(C(=O)NC)CC2 [Example 259, N-methyl-3-[6-(1-methylpyrazol-4-yl)-7-vinyl-3,4-dihydro-2H-quinolin-1-yl]-1-tetrahydropyran-4-yl-6,7-dihydro-4H-pyrazolo[4,3-c]pyridine-5-carboxamide] — 30-fold lower, 0.019 µM
- CNC(=O)N1CCc2c(c(N3CCCc4cc(-c5cnn(C)c5)c(C(F)F)cc43)nn2C2CCN(C(C)=O)CC2)C1 [Example 328, 1-(1-acetyl-4-piperidyl)-3-[7-(difluoromethyl)-6-(1-methylpyrazol-4-yl)-3,4-dihydro-2H-quinolin-1-yl]-N-methyl-6,7-dihydro-4H-pyrazolo[4,3-c]pyridine-5-carboxamide] — 80-fold lower, 0.007 µM
- CC(=O)N1CCc2c(c(Nc3ccc(-c4cnn(C)c4C)cc3F)nn2CC2COC2)C1 [Example 245, 1-[3-[6-(1-methylpyrazol-4-yl)-7-(trifluoromethyl)-3,4-dihydro-2H-quinolin-1-yl]-1-tetrahydropyran-4-yl-6,7-dihydro-4H-pyrazolo[4,3-c]pyridin-5-yl]ethanone] — 6.2-fold higher, 3.47 µM
- CC(=O)N1CCc2c(c(N3CCCc4cc(-c5cnn(C)c5)c(C(F)F)cc43)nn2[C@H]2CCNC(=O)C2)C1 (single isomer, unassigned) [Example 344] — 62-fold lower, 0.009 µM
- CC(=O)N1CCc2c(c(N3CCCc4cc(-c5cnn(C)c5)c(C)cc43)nn2[C@H]2CCOC2)C1 [Example 134, 1-[3-[7-methyl-6-(1-methylpyrazol-4-yl)-3,4-dihydro-2H-quinolin-1-yl]-1-[(3S)-tetrahydrofuran-3-yl]-6,7-dihydro-4H-pyrazolo[4,3-c]pyridin-5-yl]ethanone] — 1.7-fold higher, 0.957 µM
- CNC(=O)N1CCc2c(c(Nc3cc(F)c(-c4cnn(C)c4)cc3F)nn2C2CCOCC2)C1 [Example 268, N-methyl-3-[4-methyl-6-(1-methylpyrazol-4-yl)-7-(trifluoromethyl)-2,3-dihydroquinoxalin-1-yl]-1-tetrahydropyran-4-yl-6,7-dihydro-4H-pyrazolo[4,3-c]pyridine-5-carboxamide] — higher, > 10 µM
- CC(=O)N1CCc2c(c(N3CCCc4c3ccc(-c3cnn(C)c3)c4C#N)nn2[C@H]2CCOC2)C1 [Example 132, 1-[5-acetyl-1-[(3S)-tetrahydrofuran-3-yl]-6,7-dihydro-4H-pyrazolo[4,3-c]pyridin-3-yl]-6-(1-methylpyrazol-4-yl)-3,4-dihydro-2H-quinoline-5-carbonitrile] — within 1.5-fold, 0.737 µM
- CC(=O)N1CCc2c(c(N3CCCc4cc(-c5cncc(Cl)c5)c(C(F)F)cc43)nn2C2CCOCC2)C1 [Example 314, 1-[3-[6-(5-chloro-3-pyridyl)-7-(difluoromethyl)-3,4-dihydro-2H-quinolin-1-yl]-1-tetrahydropyran-4-yl-6,7-dihydro-4H-pyrazolo[4,3-c]pyridin-5-yl]ethanone] — 9.5-fold lower, 0.059 µM
- CC(=O)N1CCc2c(c(N3CC(C)(C)c4cc(-c5cnn(C)c5)ccc43)nn2C)C1 [Example 199, 1-[3-[3,3-dimethyl-5-(1-methylpyrazol-4-yl)indolin-1-yl]-1-methyl-6,7-dihydro-4H-pyrazolo[4,3-c]pyridin-5-yl]ethanone] — 3.2-fold higher, 1.79 µM
- CC(=O)N1CCc2c(c(N3CCCc4cc(-c5cnn(C)c5)c(F)cc43)nn2C2COC2)C1 [Example 144, 1-[3-[7-fluoro-6-(1-methylpyrazol-4-yl)-3,4-dihydro-2H-quinolin-1-yl]-1-(oxetan-3-yl)-6,7-dihydro-4H-pyrazolo[4,3-c]pyridin-5-yl]ethanone] — 1.8-fold higher, 1.02 µM
- CC(=O)N1CCc2c(c(N3CCCc4cc(-c5cnn(C)c5)ccc43)nn2C2CCCO2)C1 (centres unmarked) [Example 73, 1-[3-[6-(1-methylpyrazol-4-yl)-3,4-dihydro-2H-quinolin-1-yl]-1-tetrahydrofuran-2-yl-6,7-dihydro-4H-pyrazolo[4,3-c]pyridin-5-yl]ethanone] — 2.8-fold higher, 1.57 µM
- CC(=O)N1CCc2c(c(N3CCc4c(Cl)cc(-c5cnn(C)c5)cc43)nn2C2CCOC2)C1 (centres unmarked) [Example 207, 1-[3-[4-chloro-6-(1-methylpyrazol-4-yl)indolin-1-yl]-1-tetrahydrofuran-3-yl-6,7-dihydro-4H-pyrazolo[4,3-c]pyridin-5-yl]ethanone] — 2.2-fold higher, 1.22 µM
- CNC(=O)N1CCc2c(c(N3CCCc4cc(-c5ccccn5)c(C#N)cc43)nn2C2CCOCC2)C1 [Example 300, 1-[3-[2-fluoro-4-(1-methylpyrazol-4-yl)anilino]-1-[(3S)-tetrahydrofuran-3-yl]-6,7-dihydro-4H-pyrazolo[4,3-c]pyridin-5-yl]ethanone] — 11-fold lower, 0.053 µM
- CC(=O)N1CCc2c(c(Nc3ccc(-c4cn(C)nc4C(F)(F)F)nc3)nn2C)C1 [Example 36, 1-(1-methyl-3-((6-(1-methyl-3-(trifluoromethyl)-1H-pyrazol-4-yl)pyridin-3-yl)amino)-6,7-dihydro-1H-pyrazolo[4,3-c]pyridin-5(4H)-yl)ethanone] — within 1.5-fold, 0.39 µM
- CNC(=O)N1CCc2c(c(N3CCN(C)c4cc(-c5cnn(C)c5)c(C#N)cc43)nn2C2CCOCC2)C1 [Example 262, 3-[7-cyano-4-methyl-6-(1-methylpyrazol-4-yl)-2,3-dihydroquinoxalin-1-yl]-N-methyl-1-tetrahydropyran-4-yl-6,7-dihydro-4H-pyrazolo[4,3-c]pyridine-5-carboxamide] — 110-fold lower, 0.005 µM
- CC(=O)N1CCc2c(c(N3CC(CC(F)F)Cc4cc(-c5cnn(C)c5)ccc43)nn2[C@H]2CCOC2)C1 (stereo partly drawn) [Example 81, 1-(3-(3-(2,2-difluoroethyl)-6-(1-methyl-1H-pyrazol-4-yl)-3,4-dihydroquinolin-1(2H)-yl)-1-((S)-tetrahydrofuran-3-yl)-6,7-dihydro-1H-pyrazolo[4,3-c]pyridin-5(4H)-yl)ethanone] — 2-fold lower, 0.28 µM
